Results on 15 cell lines are retold here after the supplement of paper PMC4967469.

Holding throughout (assay): Viability of human cancer cell lines after 72 h of drug (GDSC screen)
Compound in one experiment: Nc1cccc2c1CN(C1CCC(=O)NC1=O)C2=O [Lenalidomide]
Particulars: top dose 5 µM; top dose inferred. The method, then: (§1)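 Human cancer cell lines in 384-well plates, medium with 10% serum, drug for 72 h over a 256-fold dose range (nine 2-fold or five 4-fold steps up to the top dose). Adherent lines were fixed and stained with the nucleic acid dye Syto60, suspension lines read with resazurin; signal relative to control wells, capped at 0 and 100%. One two-parameter sigmoid per drug and line, fitted in a mixed model over all curves with the slope shared within a line.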

Compound in the next experiment: CCC/C=C/C=C/C(=O)O[C@H]1/C(=C/C(=O)OC)C[C@H]2C[C@H]([C@@H](C)O)OC(=O)C[C@H](O)C[C@@H]3C[C@H](OC(C)=O)C(C)(C)[C@](O)(C[C@@H]4C/C(=C/C(=O)OC)C[C@H](/C=C/C(C)(C)[C@]1(O)O2)O4)O3 [Bryostatin 1]
Particulars: top dose 0.008 µM; top dose inferred. How it is done: as §1

Compound in the next experiment: COc1ccc(COc2ccc(Cc3cnc(N)nc3N)cc2OC)cc1 [GW-2580]
Particulars: top dose 20 µM; top dose inferred. The method, then:
as §1

Compound in the next experiment: CC(C)N(CCCNC(=O)Nc1ccc(C(C)(C)C)cc1)C[C@H]1O[C@@H](n2cc(Br)c3c(N)ncnc32)[C@H](O)[C@@H]1O [SGC0946]
Particulars: top dose 0.5 µM; top dose inferred. How it is done:
as §1

By IC50 is meant the dose at which the fit gives 50% viability; where the fit passes the top or lowest dose, that dose stands as a limit. The AUC spans the tested range (256-fold, ending at the top dose) of the same fit; values near 1 show little effect. Any top dose called inferred was calculated from the reported fits.

A704 (kidney, adherent): the AUC in the experiment with Lenalidomide was 0.989; in the experiment with Bryostatin 1, 0.976; with GW-2580 it was 0.972; in the experiment with SGC0946 it was 0.988. The IC50 with Lenalidomide is over 5 µM; with Bryostatin 1 it was over 8 nM; in the experiment with GW-2580, over 20 µM; in the experiment with SGC0946, over 500 nM.

As to A2058 (melanoma, adherent), the AUC in the experiment with Lenalidomide worked out at 0.953; in the experiment with Bryostatin 1 it was 0.966; with GW-2580 it was 0.989. Also, the results for the IC50 in the experiment with Lenalidomide, with Bryostatin 1 and with GW-2580 were over 5 µM, over 8 nM and over 20 µM, respectively.

For the cell line A2780 (ovary, semi-adherent), the AUC in the experiment with Lenalidomide came out at 0.953; with Bryostatin 1, 0.973; with GW-2580 it was 0.976; in the experiment with SGC0946 it was 0.98. Further, the IC50 in the experiment with Lenalidomide was over 5 µM; with Bryostatin 1 it was over 8 nM; with GW-2580, over 20 µM; with SGC0946, over 500 nM.

As to ABC-1 (lung adenocarcinoma, adherent), the AUC in the experiment with Lenalidomide came out at 0.915; with Bryostatin 1 it was 0.858; with GW-2580, 0.944; in the experiment with SGC0946, 0.98. The IC50 is over 5 µM with Lenalidomide, over 8 nM in the experiment with Bryostatin 1, over 20 µM in the experiment with GW-2580 and over 500 nM in the experiment with SGC0946.

For ACHN (kidney, adherent), the AUC in the experiment with Lenalidomide came out at 0.978; with Bryostatin 1 it was 0.979; with GW-2580 it was 0.973; with SGC0946, 0.981. For the same cell line, the IC50 with Lenalidomide is over 5 µM; in the experiment with Bryostatin 1, over 8 nM; with GW-2580, over 20 µM; with SGC0946, over 500 nM.

For the cell line AGS (stomach, adherent), the figures for the AUC with Lenalidomide, with Bryostatin 1 and with GW-2580 were 0.989, 0.982 and 0.981, respectively. For the same cell line, the IC50 with Lenalidomide is over 5 µM; with Bryostatin 1 it was over 8 nM; with GW-2580, over 20 µM.

For the cell line ASH-3 (thyroid, adherent), the AUC with Lenalidomide came out at 0.972; with Bryostatin 1 it was 0.988; with GW-2580 it was 0.988; in the experiment with SGC0946, 0.987. Also, the half-maximal inhibitory concentration (IC50) was over 5 µM with Lenalidomide, over 8 nM with Bryostatin 1, over 20 µM in the experiment with GW-2580 and over 500 nM with SGC0946.

For the cell line “ATN-1 (T-cell lymphoblastic leukaemia, suspension)”, the AUC with Lenalidomide stood at 0.927; with Bryostatin 1, 0.973; with GW-2580, 0.985; with SGC0946 it was 0.985. The IC50 with Lenalidomide is over 5 µM; in the experiment with Bryostatin 1, over 8 nM; with GW-2580, over 20 µM; in the experiment with SGC0946, over 500 nM.

As for AU565 (breast, adherent), the values for the AUC in the experiment with Lenalidomide, with Bryostatin 1 and with GW-2580 were 0.984, 0.972 and 0.976, respectively. In addition, the half-inhibitory concentration (IC50) was over 5 µM with Lenalidomide, over 8 nM in the experiment with Bryostatin 1 and over 20 µM with GW-2580.

Regarding AsPC-1 (pancreas, adherent), the AUC with Lenalidomide was 0.972; in the experiment with Bryostatin 1 it was 0.933; with GW-2580, 0.972; in the experiment with SGC0946 it was 0.971. In addition, the IC50 is over 5 µM with Lenalidomide, over 8 nM with Bryostatin 1, over 20 µM in the experiment with GW-2580 and over 500 nM with SGC0946.

For BB30-HNC (head and neck, adherent), the AUC with Lenalidomide worked out at 0.922; in the experiment with Bryostatin 1, 0.955; with GW-2580, 0.984; with SGC0946, 0.984. Also, the IC50 is over 5 µM in the experiment with Lenalidomide, over 8 nM with Bryostatin 1, over 20 µM with GW-2580 and over 500 nM in the experiment with SGC0946.

Consider BB49-HNC (head and neck, adherent), for which the AUC with Lenalidomide was 0.978; in the experiment with Bryostatin 1, 0.931; in the experiment with GW-2580, 0.967; in the experiment with SGC0946 it was 0.969. For the same cell line, the IC50 with Lenalidomide was over 5 µM; with Bryostatin 1, over 8 nM; with GW-2580 it was over 20 µM; with SGC0946, over 500 nM.

BB65-RCC (kidney, adherent): the AUC worked out at 0.966 with Lenalidomide, 0.942 with Bryostatin 1, 0.982 in the experiment with GW-2580 and 0.98 with SGC0946. For the same cell line, the IC50 was over 5 µM with Lenalidomide, over 8 nM with Bryostatin 1, over 20 µM with GW-2580 and over 500 nM with SGC0946.

As to BFTC-905 (bladder, adherent), the AUC with Lenalidomide was 0.986; in the experiment with Bryostatin 1, 0.99; in the experiment with GW-2580, 0.986; with SGC0946, 0.976. In addition, the IC50 was over 5 µM with Lenalidomide, over 8 nM in the experiment with Bryostatin 1, over 20 µM in the experiment with GW-2580 and over 500 nM in the experiment with SGC0946.

For BT-474 (breast, adherent), the AUC in the experiment with Lenalidomide is 0.976; with Bryostatin 1, 0.985; with SGC0946 it was 0.984. For the same cell line, the IC50 is over 5 µM with Lenalidomide, over 8 nM with Bryostatin 1 and over 500 nM in the experiment with SGC0946.

A word on the IC50: it is the concentration that inhibits the measured activity by half.
